Experimental data as given in paper PMC6919601, “Identification of Plasmodium dipeptidyl aminopeptidase allosteric inhibitors by high throughput screening” (PLoS ONE, 2019).
Where “and” joins values, the source holds several entries; their conditions need not be identical. Equal values may be shown once. Hit rate of the full screen: of about 110,000 compounds, about 230 (0.21%) showed an effect of 50% or more. The list shows a part of the results.

Each compound was assayed against DPAP1 (Plasmodium falciparum, UniProt Q8IIJ9) (assay: primary screen, percent inhibition; read by cleavage of a fluorogenic dipeptide substrate; higher = more effect of the substance).
Parameters: species or system P. falciparum D10 trophozoite lysates; single well
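Also: 30 min substrate incubation versus DMSO and 10 µM JCP410 controls.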

DPAP1, sequence (Q8IIJ9 whole entry, looked up): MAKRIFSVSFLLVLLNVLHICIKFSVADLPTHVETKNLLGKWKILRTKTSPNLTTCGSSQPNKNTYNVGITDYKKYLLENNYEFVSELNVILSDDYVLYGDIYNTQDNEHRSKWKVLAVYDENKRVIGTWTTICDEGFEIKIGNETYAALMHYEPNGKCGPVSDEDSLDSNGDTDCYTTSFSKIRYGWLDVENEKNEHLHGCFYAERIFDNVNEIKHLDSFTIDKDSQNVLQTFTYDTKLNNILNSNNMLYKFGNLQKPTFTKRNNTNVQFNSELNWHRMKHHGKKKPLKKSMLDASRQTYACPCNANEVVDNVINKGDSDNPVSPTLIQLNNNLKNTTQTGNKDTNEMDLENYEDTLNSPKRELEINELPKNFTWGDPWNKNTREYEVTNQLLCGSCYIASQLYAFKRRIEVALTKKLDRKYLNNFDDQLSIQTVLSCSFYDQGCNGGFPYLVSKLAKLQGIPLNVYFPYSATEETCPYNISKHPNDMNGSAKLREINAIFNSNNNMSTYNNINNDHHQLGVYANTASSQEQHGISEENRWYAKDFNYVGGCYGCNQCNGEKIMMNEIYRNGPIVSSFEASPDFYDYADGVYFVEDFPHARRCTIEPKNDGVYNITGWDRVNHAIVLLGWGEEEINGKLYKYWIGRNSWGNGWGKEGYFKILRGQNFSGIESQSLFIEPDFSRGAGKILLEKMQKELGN

SMILES | % Inhibition @ 10 uM
C=CCNC(=O)C1CCN(c2cnccn2)CC1 | 0.758%
Cc1ccccc1C(=O)Nc1ccccc1-n1cccc1 | -10.1%
Cc1ccc(S(=O)(=O)N2CCCC(C(=O)O)C2)cc1 (stereo not drawn) | -2.37%
Cc1cc(Cl)ccc1OCc1nc(-c2ccc(OCC(N)=O)cc2)no1 | -6.23%
CCOC(=O)c1c(S(=O)(=O)N2CCC(Cc3ccccc3)CC2)c(C)n(C)c1C | -3.37%
CC1CCN(C(=O)CCn2ccc3cc(S(=O)(=O)N4CCCCC4)ccc32)CC1 | 4.16%
N#CCNC(=O)[C@H](CC1CC1)NC(=O)OCc1ccccc1 | -1.83%
Cc1nc(O)c(C(=O)/C=C/c2ccccc2F)c2c1CCCC2 | -0.833%
CCOc1ccc(-n2nnc(-c3nc(-c4ccc(C)cc4)no3)c2N)cc1 | 7.62%
O=C(O)c1cnc2ccc([N+](=O)[O-])cc2c1O | -0.591%
O=C(Cn1ncc2ccccc21)N1CCC2(CC1)OCCO2 | 3.29%
COc1ccc(Br)cc1C1=N/C(=C\c2ccc3c(c2)OCO3)C(=O)O1 | 4.38%
COc1ccc2c(c1)CC/C(=C\c1ccc(N(C)C)cc1)C2=O | 2.72%
O=C(NCCCCCCNC(=O)c1cncc(O)c1)c1cncc(O)c1 | 8.74%
O=C(NCc1nc2ccccc2[nH]1)c1ccccn1 | -1.24%
CCc1ccc(-n2c(C)cc(/C=C3\NC(=O)NC3=O)c2C)cc1 | 4.83%
C=CCNC(=S)Nc1ccc(Cl)c(Cl)c1 | 15.2%
Cc1ccccc1NS(=O)(=O)c1cccc(S(=O)(=O)c2cccc(S(=O)(=O)Nc3ccccc3C)c2)c1 | 1.42%
CCc1ccc(OCC(=O)Nc2sc3c(c2C(N)=O)CCCC3)cc1 | 1.27%
COc1cc(SC#N)ccc1N/C=C1/C(=O)NC(=O)N(c2ccccc2)C1=O | -6.7%
CC(C)(C)C1(C)OC(=O)C(=Cc2ccc(-c3ccc(C(=O)O)cc3)o2)C(=O)O1 (stereo not drawn) | 27.6%
CCCC1(O)CC(c2ccccc2)NC(c2ccccc2)C1C (stereo not drawn) | 6.12% and -2.51%
COc1ccc2oc(=O)c(-c3nc(-c4ccncc4)no3)cc2c1 | -1.68%
Cn1c(=O)c2c(nc(SCc3ccc(C(=O)O)cc3)n2C)n(C)c1=O | -0.386%
CCOC(=O)N1CCC(NC(=O)CCc2c(C)nc3c(c(C)nn3-c3ccc(C)cc3)c2C)CC1 | 2.93%

SMILES | % Inhibition @ 10 uM
Cc1cc(C)c2c(N)c(C(=O)c3cccc(Cl)c3)sc2n1 | -1.38%
O=C(NCCOC12CC3CC(CC(C3)C1)C2)c1sc2ccccc2c1Cl | 1.84%
Cc1ccc(S(=O)(=O)NC2(C(=O)O)CCCCC2)cc1 | -0.0626%
CN(C)c1ccc(NC(=O)NC2CCCCC2)cc1 | -12.2%
CC(C)C[C@H](NC(=O)c1cccc(C#N)c1)C(=O)NCC#N | -4.72%
CCN(CC)CCNC(=O)c1sc2ccccc2c1Cl | -0.687%
COCCCN(C(=O)Cn1ncc2c(=O)oc3ccc(C)cc3c21)C(C)c1ccncc1 (stereo not drawn) | -0.0115%
CCC[C@H](NC(=O)C1(NC(=O)N2CCC(N3CCOCC3)CC2)CCCCC1)C(=O)c1nnc(-c2ccc(OC)cc2)o1 | -8.26%
COc1ccc(O)c(/C=N/NC(N)=S)c1 | 6.11%
CCC1CCCCN1CCCNC(=O)C1CCN(S(=O)(=O)CC)CC1 (stereo not drawn) | 11.1%
O=Cc1c[nH]c2ccc(S(=O)(=O)N3CCOCC3)cc12 | -4.32%
CCOc1ccc(Oc2cccc(Br)n2)cc1 | -0.511%
Cc1cccc(NC(=O)c2cc(F)c(F)cc2Cl)n1 | -2.8%
CCn1c(COC)nc2ccccc21 | -5.92%
CCN(CC)CCCNC(=O)Cn1ncn2c(cc3sccc32)c1=O | 0.137%
COc1ccc(C(=O)N[C@H]2COC(C)(C)O[C@H]2c2ccccc2)cc1 | -6.28%
CCN(CC)CCCOc1ccc(OC)cc1 | 3%
COC(=O)c1sccc1NC(=O)c1cc(-c2ccc(C)o2)nc2ccccc12 | 3.94%
O=C(O)CSc1cc(NS(=O)(=O)c2ccc3ccccc3c2)c2ccccc2c1O | -1.07%
CCOC(=O)c1[nH]c(C)c(C(=O)NC(CC)c2cccs2)c1C (stereo not drawn) | -4.68%
COc1ccc(C(N)=O)cc1NC(=O)CC(O)(C(F)(F)F)C(F)(F)F | 3.8%
Cc1ccc(CNC(=O)CCCNS(=O)(=O)c2cccc3nonc23)cc1 | -8.38%
COc1ccccc1-n1nnc(-c2nsc(NC(=O)c3ccc(C)cc3)n2)c1C | -3.02%
Cc1ccc(C(=O)N/C(=C/c2cccs2)C(=O)NC(C)(C)C)cc1 | -5.07%
COC(=O)c1cc(S(=O)(=O)N(C)Cc2ccccc2)c[nH]1 | -11.2%

SMILES | % Inhibition @ 10 uM
O=C(COc1ccc(Br)cc1)Nc1ccc(Cl)cc1C(=O)O | -2.74%
O=C(CN1C(=O)c2ccccc2C1=O)N1CCN=C1c1ccccc1 | -1.28%
CN(C)c1ccc(CNCC2CCCO2)cc1 (stereo not drawn) | 0.343%
Cc1ccccc1C(=O)N1CCC(C(=O)Nc2ccc(C(F)(F)F)cc2)CC1 | -0.48%
O=C1CC(N2CCN(Cc3ccc4c(c3)OCO4)CC2)C(=O)N1CCc1ccccc1 (stereo not drawn) | -1.65%
COc1cc(C2C(C(=O)Nc3ccccc3)=C(C)Nc3ncnn32)ccc1OCc1ccccc1 (stereo not drawn) | 6.1%
CCn1cc(CNC(=O)NC2CCCCC2)c(C)n1 | -2.37%
COc1ccc(C2c3cc(OC)c(OC)cc3CCN2C(C)=O)cc1OC (stereo not drawn) | -2.42%
COc1cccc(CSc2nnc(C)n3c2cc2sccc23)c1 | 2.54%
CCOc1ccc(C2C(C(=O)c3ccco3)=C(O)C(=O)N2Cc2cccnc2)cc1OC (stereo not drawn) | 2.17%
C=CCc1cccc2cc(C(=O)NC3CC(C)(C)NC(C)(C)C3)c(=O)oc12 | 6.91%
CC1CCN(C(=O)c2ccc(Cl)cc2)CC1 | 0.273%
CC(C)Sc1ncc(Cl)c(C(=O)N(Cc2ccccc2)c2ccccn2)n1 | 2.41%
O=C(NC1CCSC1=O)c1ccccc1 (stereo not drawn) | -0.833%
CCOC(=O)N1CCC2(CC1)C(C#N)=C(N)OC1=C2C(=O)CC(C)C1 (stereo not drawn) | -2.77%
COCCCNC(=O)/C(C#N)=C/c1c(Oc2ccc(C(C)(C)C)cc2)nc2c(C)cccn2c1=O | 2%
CN(C)c1ccc(/C=C(/NC(=O)c2ccccc2)C(=O)N2CCCCCC2)cc1 | 3.72%
Cc1ccc2nc(C3C(=O)c4ccccc4C3=O)ccc2c1 | -1.64%
O=C(CC(c1cccs1)N1Cc2ccccc2C1=O)NCc1ccccc1Cl (stereo not drawn) | -2.01%
CCOc1cc(/C=C2/C(=N)N3C(=NC2=O)SN=C3S(C)(=O)=O)ccc1O | 1.85%
CC(C)C[C@H](NC(=O)OCc1ccccc1)C(=O)N(C)CC#N | -3.97%
COCCn1c(CN2CC(C)CC(C)C2)nc2c1c(=O)n(C)c(=O)n2C (stereo not drawn) | 0.317%
CCc1ccc(OCC(O)CN2CCN(c3ccccc3F)CC2)cc1 (stereo not drawn) | -4.59%
Cc1nc(-c2ccccc2)nc2c1C(=O)/C(=C/c1ccccc1)S2 | -4.61%
Fc1ccccc1CN1CCN(c2ccccn2)CC1 | 1.55%

SMILES | % Inhibition @ 10 uM
Cn1cc(C(=O)NCCC2=CCCCC2)c2c3ccccc3n(C)c2c1=O | 0.723%
COc1ccc(C2(CNS(=O)(=O)c3ccc(C)cc3)CCOCC2)cc1 | 3.15%
COc1ccc(C(C)NC(=O)C2C(=O)NC3(C)CC2c2ccccc2O3)cc1 (stereo not drawn) | 2.56%
CCS(=O)(=O)c1nc(S(=O)(=O)c2ccc(C)cc2)c(NC(C)C)s1 | -0.522%
NC(=O)c1cc(S(=O)(=O)N2CCN(C(c3ccc(F)cc3)c3ccc(F)cc3)CC2)cs1 | 5.82%
CN(C)CCOC(=O)c1sc2ccccc2c1Cl | -4.21%
N#Cc1c(N)nc2c(c1-c1ccco1)CCCCCC2 | -4.94%
COc1ccc(N(C(=O)/C=C/c2ccccc2)C2=CC3CCC(C2)N3C)cc1 (stereo not drawn) | 4.57%
COc1ccc(NC(=O)/C(=C/c2ccc3c(c2)OCO3)NC(=O)c2ccco2)cc1 | 1.01%
CCC(=O)NC(C)C(c1cccs1)N1CCOCC1 (stereo not drawn) | 2.34%
COc1cc(Br)cc2cc(C(=O)NCc3ccc4c(c3)OCO4)c(=O)oc12 | -2.5%
CCOC(=O)C1=C(C)N=c2s/c(=C/c3ccc(C)o3)c(=O)n2C1c1cccs1 (stereo not drawn) | -1.2%
Cc1ccc(Cn2nnc3c(=O)n(CC(=O)NCc4ccccc4)cnc32)cc1 | -2.16%
COc1c(Cl)cnn(-c2ccccc2)c1=O | -6.5%
CCSc1snc(O)c1C#N | 1.72%
COc1cc2c(cc1OC)C(C(=O)NCCCN1CCOCC1)C(c1cccnc1)N(C)C2=O (stereo not drawn) | -2.12%
CCOC(=O)c1sc2nc(C)cc(C)c2c1N | -0.197%
Cn1cccc1Cc1nnc(SCC(N)=O)n1-c1ccc(F)cc1 | -3.95%
COc1ccc(OC)c(CCNC(=O)c2sc(-n3cccc3)nc2C)c1 | 2.65%
O=C(NCCc1ccccc1)c1ccc(CNC(=O)c2ccc(Br)cc2)cc1 | -5.64%
CN1C(=O)CC(C(=O)Nc2ccccc2)S/C1=N\c1ccc(Br)cc1 (stereo not drawn) | 4.05%
Cc1cccn2c(=O)c3cc(C#N)c(=O)n(-c4nnc(SCc5ccccc5Cl)s4)c3nc12 | -4.07%
Cc1ccc2nc(Cl)c3cc(C(=O)NCC4CCCO4)sc3c2c1 (stereo not drawn) | -1.7%
COc1ccccc1NC(=O)C1=C(C)N=C2CCCC(O)=C2C1c1ccc(F)cc1 (stereo not drawn) | -2.77%
